Molecules are shown by their SMILES. Out of some 39,000 compounds screened, about 220 (0.56%) showed activity. This is one part of the list.

For 60 molecules, relative growth results are on record in the supplement of paper PMC9446081.
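Note: static incubation at 37 °C against the wild-type strain, values averaged over two biological replicates.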

The subject of this assay is Escherichia coli K-12 BW25113. Put plainly: relative growth (OD600 normalised to plate interquartile mean) (fraction); higher = less growth inhibition, active = 0.2 or less. The settings on record: 50 µM; LB; incubation time: overnight (16-24 h).
Consider `C[C@@H]1CCCCO[C@H](CN(C)Cc2ccc3c(c2)OCO3)[C@@H](C)CN([C@@H](C)CO)C(=O)c2cc(NC(=O)C3CCCCC3)ccc2O1`, for which the relative growth is inactive: 1.02. Next, `COc1ccc(NC(=O)Nc2ccc3c(c2)C(=O)N([C@H](C)CO)C[C@H](C)[C@@H](CN(C)Cc2ccc(C(=O)O)cc2)OCCCC[C@H](C)O3)cc1`: inactive: 0.979. On to `C[C@H]1CN([C@@H](C)CO)C(=O)c2c(c3ccccc3n2C)-c2ccccc2CO[C@H]1CN(C)Cc1ccc(Cl)c(Cl)c1`, for which the relative growth was inactive: 0.998. Regarding `C[C@H](CO)N1C[C@H](C)[C@@H](CN(C)Cc2cncnc2)Oc2ncc(C#C[C@@H](C)O)cc2C1=O`, the relative growth was inactive: 0.973. `COc1ccc(S(=O)(=O)N(C)C[C@H]2Oc3ccc(NC(=O)CCCN(C)C)cc3CC(=O)N([C@@H](C)CO)C[C@H]2C)cc1`: the relative growth is inactive: 0.994. `Cc1cccc2sc(NC(=O)c3ccc(C(C)(C)C)cc3)nc12`: the relative growth is inactive: 0.992. On to `C[C@@H]1CN([C@@H](C)CO)C(=O)c2cccc(NC(=O)C3CC3)c2O[C@@H]1CN(C)Cc1ccc2c(c1)OCO2`, for which the relative growth is inactive: 0.993. Consider `Cc1noc(C)c1NC(=O)Nc1cccc2c1O[C@H](CN(C)Cc1ccc(C(F)(F)F)cc1)[C@@H](C)CN([C@@H](C)CO)C2=O`, for which the relative growth is inactive: 0.978. Consider `C[C@@H]1CN([C@H](C)CO)C(=O)c2cc(NC(=O)Cc3ccccc3)ccc2O[C@@H]1CN(C)Cc1ccc(Cl)c(Cl)c1`, for which the relative growth was inactive: 1.02. The value for `CCCN1C(=O)C[C@@H](N2CCOCC2)C1=O` was inactive: 1.01; that for `C[C@H]1CN([C@@H](C)CO)C(=O)CCCn2cc(nn2)CO[C@@H]1CN(C)C(=O)Nc1ccc(C(C)(C)C)cc1` was inactive: 1.01; that for `Cc1ccc(-c2ccc3c(c2)O[C@H](CN(C)C(=O)NC(C)C)[C@H](C)CN([C@H](C)CO)S3(=O)=O)cc1` was inactive: 1.03. For the molecule `C[C@@H]1CN([C@@H](C)CO)C(=O)c2cc(C#CC3CCCC3)cnc2O[C@@H]1CN(C)C(=O)Cc1ccccn1`, the relative growth was inactive: 1.02. The value for `CC(=O)Oc1ccccc1C(=O)Nc1ncc([N+](=O)[O-])s1` was inactive: 0.526; that for `COC(=O)c1cc(OC)c(OC)c(OC)c1` was inactive: 1.09; that for `COC(=O)C[C@H]1CC[C@@H]2[C@H](COC[C@H](O)CN2S(=O)(=O)c2cn(C)cn2)O1` was inactive: 0.945. The value for `C[C@@H]1CN([C@@H](C)CO)C(=O)c2cc(NC(=O)Nc3cccc4ccccc34)ccc2O[C@@H](C)CCCCO[C@@H]1CN(C)C(=O)NC1CCCCC1` was inactive: 1.03; that for `COc1ccc(S(=O)(=O)Nc2ccc3c(c2)C(=O)N([C@H](C)CO)C[C@@H](C)[C@@H](CN(C)S(C)(=O)=O)O3)cc1` was inactive: 1. The value for `C[C@@H]1CN([C@@H](C)CO)C(=O)Cc2cc(NC(=O)CCC(F)(F)F)ccc2O[C@H]1CN(C)S(=O)(=O)c1cn(C)cn1` was inactive: 0.977. For the molecule `Cn1cc(-c2[nH]c3cc(NC(=O)[C@H](N)C4CCCCC4)cc4c3c2C=NNC4=O)cn1`, the relative growth is active: 0.161. Next, `C[C@@H]1CN([C@@H](C)CO)C(=O)c2cc(NC(=O)c3ccncc3)ccc2O[C@@H](C)CCCCO[C@H]1CN(C)Cc1ccccc1`: inactive: 1; `O=C(C[C@@H]1C=C[C@H](NS(=O)(=O)c2ccccc2F)[C@@H](CO)O1)NCCCN1CCOCC1`: inactive: 0.979.

With `COCC(=O)N(C)C[C@@H]1Oc2cc(C#CCC3CCCC3)ccc2S(=O)(=O)N([C@H](C)CO)C[C@H]1C`, the relative growth was inactive: 1.

In the case of `C[C@@H]1CN([C@@H](C)CO)C(=O)c2cc(NS(C)(=O)=O)ccc2O[C@@H]1CN(C)S(C)(=O)=O`, the relative growth is inactive: 1.02. Next, `C[C@H](CO)N1C[C@H](C)[C@H](CN(C)CC2CC2)OCCCC[C@H](C)Oc2ccc(NC(=O)NC3CCCCC3)cc2C1=O`: inactive: 0.994. On to `c1cnc2nc[nH]c2c1`, for which the relative growth was inactive: 1.

On to `CCCN(C)C[C@H]1OCCCC[C@@H](C)Oc2ccc(NC(=O)Nc3ccc(F)cc3)cc2C(=O)N([C@H](C)CO)C[C@@H]1C`, for which the relative growth was inactive: 1. Next, `C[C@H](CO)N1C[C@H](C)[C@@H](CN(C)S(=O)(=O)c2ccc(Cl)cc2)OCCCC[C@H](C)Oc2ccc(NS(=O)(=O)c3ccc(F)cc3)cc2C1=O`: inactive: 0.976; `C[C@@H]1CCCCO[C@@H](CN(C)C(=O)NC2CCCCC2)[C@H](C)CN([C@@H](C)CO)C(=O)c2cc(NC(=O)CCC(F)(F)F)ccc2O1`: inactive: 0.99; `C[C@@H]1CCCCO[C@H](CN(C)C(=O)c2ccccc2)[C@@H](C)CN([C@@H](C)CO)C(=O)c2cc(NC(=O)CCC(F)(F)F)ccc2O1`: inactive: 1. The value for `C[C@@H]1CN([C@H](C)CO)C(=O)Cc2cc(NS(=O)(=O)c3ccccc3)ccc2O[C@H]1CN(C)Cc1ccc(Cl)c(Cl)c1` was inactive: 1.01. Next, `Cn1cnc(S(=O)(=O)N2C[C@H](O)COC[C@@H]3O[C@@H](CC(=O)N4CCN(c5ccccc5)CC4)CC[C@H]32)c1`: inactive: 1.01; `C[C@H](CO)N1C[C@H](C)[C@@H](CN(C)C(=O)C2CCCCC2)OCCCC[C@H](C)Oc2ccc(NC(=O)c3ccccc3)cc2C1=O`: inactive: 0.982; `COc1ccc(S(=O)(=O)Nc2ccc3c(c2)C(=O)N([C@H](C)CO)C[C@H](C)[C@H](CN(C)S(=O)(=O)c2ccc(Cl)cc2)OCCCC[C@@H](C)O3)cc1`: inactive: 0.996. For the molecule `Br.CN1CCCC1Cc1c[nH]c2ccc(CCS(=O)(=O)c3ccccc3)cc12` (stereo not given), the relative growth is inactive: 1.02. Take `C[C@@H]1CN([C@@H](C)CO)C(=O)c2cc(NC(=O)NC3CCCCC3)ccc2O[C@@H]1CN(C)C(=O)Nc1ccc(C(F)(F)F)cc1`: the relative growth was inactive: 1.01.

As for `CC(C)NC(=O)N(C)C[C@H]1Oc2c(NS(=O)(=O)c3ccc(Cl)cc3)cccc2C(=O)N([C@H](C)CO)C[C@H]1C`, the relative growth was inactive: 0.999. The value for `C[C@H](CO)N1C[C@H](C)[C@@H](CN(C)C(=O)Cc2ccncc2)Oc2cc(C#CC3CCCCC3)ccc2S1(=O)=O` was inactive: 0.99; that for `C[C@H]1CN([C@@H](C)CO)C(=O)c2cc(NC(=O)CCCN(C)C)ccc2O[C@@H]1CN(C)Cc1ccccc1` was inactive: 0.98; that for `C[C@H](CO)N1C[C@H](C)[C@@H](CN(C)Cc2ccc3c(c2)OCO3)Oc2c(NS(C)(=O)=O)cccc2C1=O` was inactive: 0.999. The value for `C[C@H]1CN([C@@H](C)CO)C(=O)c2cc(NC(=O)Nc3cccc4ccccc34)ccc2O[C@H]1CN(C)S(=O)(=O)c1ccccc1` was inactive: 1.02; that for `CC(C)NC(=O)N(C)C[C@@H]1Oc2ccc(NC(=O)C3CCCCC3)cc2C(=O)N([C@H](C)CO)C[C@@H]1C` was inactive: 0.926; that for `COc1ccc(CNC(=O)C[C@H]2C[C@@H]3c4cc(NC(=O)NC5CCCC5)ccc4O[C@@H]3[C@H](CO)O2)cc1` was inactive: 1.

For the molecule `C[C@@H]1CCCCO[C@@H](CN(C)Cc2ccncc2)[C@@H](C)CN([C@@H](C)CO)C(=O)c2cc(NS(=O)(=O)c3ccc(Cl)cc3)ccc2O1`, the relative growth was inactive: 1.02. Next, `C[C@@H]1CCCCO[C@H](CN(C)S(=O)(=O)c2cccs2)[C@@H](C)CN([C@H](C)CO)C(=O)c2cc(NC(=O)C3CCCCC3)ccc2O1`: inactive: 1.02; `C[C@@H]1CN([C@@H](C)CO)C(=O)c2cc(NC(=O)CCCN(C)C)ccc2O[C@@H]1CN(C)Cc1ccc(C(=O)O)cc1`: inactive: 0.987. Next, `COC(=O)/C=C/C(=O)O`: inactive: 0.999. `C[C@H](CO)N1C[C@H](C)[C@@H](CN(C)C(=O)c2cc(Cl)cc(Cl)c2)OCc2ccccc2-c2ccccc2C1=O`: the relative growth was inactive: 0.98. Turning to `C[C@@H]1CCCCO[C@H](CN(C)CC2CCCCC2)[C@H](C)CN([C@H](C)CO)C(=O)c2cc(NC(=O)c3ccccc3)ccc2O1`, the relative growth was inactive: 0.984.

Turning to `CNC[C@H]1Oc2ccc(NC(=O)Cn3cnnn3)cc2CC(=O)N([C@@H](C)CO)C[C@@H]1C`, the relative growth was inactive: 0.99. Consider `C[C@H](CO)N1C[C@H](C)[C@H](CN(C)C(=O)Nc2cccc3ccccc23)Oc2c(NC(=O)C3CCCCC3)cccc2C1=O`, for which the relative growth was inactive: 0.905. Consider `C[C@@H]1CN([C@@H](C)CO)C(=O)c2cc(NS(=O)(=O)c3cn(C)cn3)ccc2O[C@@H](C)CCCCO[C@H]1CN(C)C(=O)c1ccncc1`, for which the relative growth was inactive: 1. Regarding `Cn1cc(C(F)(F)F)ccc1=S`, the relative growth is inactive: 1.02. The value for `O=C(C[C@H]1CC[C@@H]2[C@H](COC[C@@H](O)CN2S(=O)(=O)c2cccc(Cl)c2)O1)N1CCOCC1` was inactive: 1. For the molecule `CO[C@@H]1CN(C)C(=O)c2cc(NC(=O)C3CCOCC3)ccc2OC[C@H](C)N(Cc2cccnc2)C[C@@H]1C`, the relative growth is inactive: 1.01. The value for `C[C@@H]1CCCCO[C@H](CN(C)Cc2ccc(C(=O)O)cc2)[C@@H](C)CN([C@@H](C)CO)C(=O)c2cc(NC(=O)Nc3ccc4c(c3)OCO4)ccc2O1` was inactive: 1; that for `CCCN(C)C[C@@H]1OCCCC[C@H](C)Oc2ccc(NS(C)(=O)=O)cc2C(=O)N([C@@H](C)CO)C[C@H]1C` was inactive: 1.02. Turning to `COc1ccc(S(=O)(=O)N(C)C[C@H]2OCCCC[C@H](C)Oc3ccc(NC(=O)Nc4ccc(F)cc4)cc3C(=O)N([C@H](C)CO)C[C@@H]2C)cc1`, the relative growth was inactive: 1.02.

Turning to `Cc1ccc(S(=O)(=O)Nc2ccc3c(c2)C(=O)N([C@H](C)CO)C[C@@H](C)[C@H](CN(C)C(=O)Nc2ccc4c(c2)OCO4)OCCCC[C@H](C)O3)cc1`, the relative growth is inactive: 1.01. For the molecule `COc1ccc(NC(=O)Nc2ccc3c(c2)C(=O)N([C@@H](C)CO)C[C@@H](C)[C@@H](CN(C)C(=O)c2ccccc2)OCCCC[C@H](C)O3)cc1`, the relative growth was inactive: 1.
